Structures are written as SMILES. About 450 (0.94%) of roughly 48,000 compounds were called active. Roughly 19% stayed inconclusive and do not appear here. Calls come from the whole dose curve; as a rule, active = well fitted inhibition curve with a large enough effect; inconclusive = small, poorly fitted or top-dose-only effect; inactive = no such curve, though single readings can be large or run the other way. The list shows a part of the results.

The nature of the experiment: Primary qHTS for Identification of Small Molecule Inhibitors of Huntingtin Promoter Activity. Note: nearly all actives have a fitted effect of over 50% in size. As to conditions: HEK293 HTT promoter firefly luciferase reporter (activity 0% = vehicle and -100% = no light), 24 h; series mostly up to 57.5 µM; activity change, negative = inhibition: at the top concentration. A digest of the protocol:
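HEK293 cells carrying firefly luciferase reporters were seeded at 2,500 per well in Opti-MEM and cultured for 24 h. They were then treated with compounds at up to 57.5 uM final for 24 h at 37 degrees C before Dual-Glo luminescence readout.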
(In general: Quantitative high-throughput screening tests each substance at several concentrations.)
For the compound `CN(C)CCNC(=O)Cc1ccc(NC(=O)N2CCCCc3ccccc32)cc1`, the “activity change, negative = inhibition” value was inactive: -6.01%.

On to `Cc1ccc(C(=O)c2cn(Cc3ccc(F)cc3)c3nc(C)ccc3c2=O)cc1`, for which the “activity change, negative = inhibition” value was inactive: -26.8%.

Consider `CCOC(=O)c1cc(-c2ccc(C)cc2)n(CC(=O)Nc2cccc(C(C)=O)c2)c1C`, for which the “activity change, negative = inhibition” value was inactive: -11%.

`COCCCn1c(=N)c(S(=O)(=O)c2ccccc2)cc2c(=O)n3cccc(C)c3nc21`: the “activity change, negative = inhibition” value was inactive: 3.62%.

For `CC1(C)CC(=O)c2cc(C(=O)Nc3ccc(Br)cc3)c(=O)n(-c3ccc(Cl)cc3)c2C1`, the “activity change, negative = inhibition” value is inactive: -9.04%.

In the case of `COc1ccccc1N1CCN(C(=O)CCSCc2ccccc2F)CC1`, the “activity change, negative = inhibition” value was inactive: 22.3%.

As for `Cc1oc(-c2ccccc2F)nc1Cn1c(SCc2ccccc2F)nc2ccncc21`, the “activity change, negative = inhibition” value was inactive: -19.2%.

For `COCCOc1nc(-c2ccc(Cl)c(Cl)c2)n(-c2ccc(NC(=O)CCl)cc2)n1`, the “activity change, negative = inhibition” value is inactive: -19.6%.

For the compound `CCn1cc2nc(SCc3cc(C)ccc3C)n(Cc3ccc(C)cc3)c(=O)c2n1`, the “activity change, negative = inhibition” value is inactive: -12.2%.

For `Cc1ccccc1OCc1nc2c3cnn(-c4ccccc4Br)c3ncn2n1`, the “activity change, negative = inhibition” value was inactive: 13.1%.

Regarding `COc1ccc(Nc2oc(/C=C/c3ccc(F)cc3)nc2C#N)cc1`, the “activity change, negative = inhibition” value is inactive: 15%.

Take `Cc1ccc(C2c3cccn3CCN2S(=O)(=O)c2ccc([N+](=O)[O-])cc2)cc1` (stereo not drawn): the “activity change, negative = inhibition” value is inactive: -16.4%.

Turning to `COc1cccc(CNC(=O)CSc2nc(=O)[nH]c3c2CCCC3)c1`, the “activity change, negative = inhibition” value was inactive: -8.02%.

Take `Oc1c(C(c2ccc(Cl)cc2Cl)N2CCOCC2)sc2nc(-c3ccco3)nn12` (stereo not drawn): the “activity change, negative = inhibition” value was inactive: -10.4%.

For `CC(=O)N[C@@H](Cc1ccc(O)cc1)C(=O)O`, the “activity change, negative = inhibition” value was inactive: -2%.

`CCc1ccc(NC(=O)Cn2c(=O)c(-c3ccccc3NC(C)=O)nc3ccccc32)cc1`: the “activity change, negative = inhibition” value is inactive: -16%.

For the compound `OC[C@@H](O)[C@@H](O)[C@H](O)[C@H](O)CO`, the “activity change, negative = inhibition” value is inactive: 1.66%.

As to `CCOc1ccc(S(=O)(=O)N(CC(=O)NCCSCc2ccc(C)cc2)c2ccccc2)cc1`, the “activity change, negative = inhibition” value is inactive: -11.4%.

Take `CCn1ccc2cc(S(=O)(=O)N3CCCN(C(=O)Nc4ccccc4C(F)(F)F)CC3)ccc21`: the “activity change, negative = inhibition” value is inactive: -28%.

For `Cc1ccc2c(=O)cc(C(=O)Nc3nnc(CC(C)C)s3)oc2c1C`, the “activity change, negative = inhibition” value is inactive: 8.15%.

As to `O=C(CC1N=C2c3ccccc3N=C(SCC(=O)Nc3cccc(Cl)c3)N2C1=O)NCc1cccs1` (stereo not drawn), the “activity change, negative = inhibition” value was inactive: -11.3%.

As to `CC1CCN(S(=O)(=O)c2ccc(N3CCCCS3(=O)=O)cc2)CC1`, the “activity change, negative = inhibition” value was inactive: -42.5%.

For `COc1ccc(CCNC(=O)Cn2cc(S(=O)(=O)Cc3ccccc3F)c3ccccc32)cc1OC`, the “activity change, negative = inhibition” value is inactive: -9.35%.

On to `Cc1cccc(Cn2c(=O)n(CCC(=O)NCc3ccc4c(c3)OCO4)c(=O)c3sccc32)c1`, for which the “activity change, negative = inhibition” value is inactive: -10%.

With `Cc1ccc(C)n1-c1nnc(N2CCC(C(=O)Nc3ccccc3Br)CC2)s1`, the “activity change, negative = inhibition” value is inactive: -20.5%.

For the compound `COc1ccc2c(c1)Cc1sc(NC(=O)c3ccccc3Br)nc1-2`, the “activity change, negative = inhibition” value was inactive: -6.85%.

Take `CCn1c(SCC(=O)Nc2ccc(C)cc2Br)nnc1-c1nonc1NC(C)=O`: the “activity change, negative = inhibition” value is inactive: -26.9%.

On to `CCc1ccc(NC(=O)c2ccc3c(c2)N(Cc2ccc(C)cc2)CCS3)cc1`, for which the “activity change, negative = inhibition” value was inactive: 19.4%.

Consider `CCc1ccccc1N(C)C(=O)C1CCCN(c2ncnc3onc(-c4ccc(F)cc4)c23)C1` (stereo not drawn), for which the “activity change, negative = inhibition” value is inactive: -5.25%.

Consider `Cc1ccc(OCCn2c(CNc3cccc(C)c3)nc3ccccc32)cc1`, for which the “activity change, negative = inhibition” value was inactive: -26.1%.

As for `CCCN1CCc2nc(N3CCN(CC)CC3)ncc2C1`, the “activity change, negative = inhibition” value was inactive: -11.3%.

Take `CCOc1cccc(C(=O)Nc2c(C(=O)c3ccc(OC)cc3)oc3ccccc23)c1`: the “activity change, negative = inhibition” value was inactive: 3.04%.

For the compound `COc1ccc(N2Cc3cccc(C(=O)Nc4ccc(C(C)C)cc4)c3C2=O)cc1`, the “activity change, negative = inhibition” value was inactive: 0.472%.

In the case of `CCCCOC(=O)c1ccc(NC(=O)c2cc(-c3ccccc3)on2)cc1`, the “activity change, negative = inhibition” value is inactive: -4.58%.

With `CC(=O)c1ccc(C(=O)N(CCCN(C)C)c2nc3c(C)c(C)ccc3s2)cc1`, the “activity change, negative = inhibition” value was inactive: -19.7%.

In the case of `CS(=O)(=O)NCC(c1ccco1)N1CCN(c2ccccc2)CC1` (stereo not drawn), the “activity change, negative = inhibition” value is inactive: -5.66%.

Consider `C=CCc1ccc(O)c(OC)c1`, for which the “activity change, negative = inhibition” value is inactive: 9.78%.

Turning to `Cc1ccc(NC(=O)c2sc(-n3nc(C)c(CCC(C)C)c3C)nc2C)cc1C`, the “activity change, negative = inhibition” value was inactive: -5.86%.

`CC1=C(C(=O)Nc2cccnc2)C(c2ccc(F)cc2)n2nc(SCc3ccccc3F)nc2N1` (stereo not drawn): the “activity change, negative = inhibition” value is inactive: -4.48%.

With `CCOC(=O)c1cnc2c(C)c(Cl)ccc2c1Nc1ccc(C)cc1C`, the “activity change, negative = inhibition” value was inactive: -7.24%.

For `CCN(C(=O)c1cc2c(Cl)nc3ccccc3c2s1)c1cccc(Cl)c1`, the “activity change, negative = inhibition” value was inactive: 0.321%.

Consider `COc1cc(NC(=O)CN(C)S(=O)(=O)c2ccc3[nH]c4c(c3c2)CCCC4)cc(OC)c1OC`, for which the “activity change, negative = inhibition” value was inactive: -0.0394%.

In the case of `O=C(NC1CCCC1)c1ccc(CSc2nc3ccncc3n2Cc2ccccc2F)cc1`, the “activity change, negative = inhibition” value was inactive: -4.37%.

`CCOC(=O)C1CCCN(C(=O)C2CCN(c3nnc(C)c4c(C)n(-c5ccccc5)nc34)CC2)C1` (stereo not drawn): the “activity change, negative = inhibition” value was inactive: -11.9%.

Take `COc1ccccc1C(=O)NCc1ccc2c(c1)CCN2C(=O)c1ccncc1`: the “activity change, negative = inhibition” value was inactive: -12.4%.

`Cc1cc(NC(=O)CSc2nc3c([nH]c4ccccc43)c(=O)n2-c2cccc(Cl)c2)no1`: the “activity change, negative = inhibition” value is inactive: -17%.

In the case of `CCn1cc(C(=O)O)c(=O)c2cc(F)c(N3CCNCC3)nc21`, the activity change, negative = inhibition entry is “inactive”.

For `Cc1ccc(C)c(N2CCN(C(=O)C3CCN(S(=O)(=O)c4cn(C)cn4)CC3)CC2)c1`, the “activity change, negative = inhibition” value is inactive: -18.3%.

The values above are taken from PubChem BioAssay AID1508623 (National Center for Advancing Translational Sciences (NCATS), 2021).
